The target of this assay is UBXN7-UAS (UAS domain of UBXN7, aa 94-284) (human) (UniProt O94888). Description: ITC; VP-ITC; 200 µM RNF111 RING domain injected (20 x 10 µl) into 10 µM UBXN7-WT or UBXN7-UAS, or into 15 µM UBXN7-∆UAS, in the cell; 25 °C; phosphate-buffered saline pH 7.4, 1 mM TCEP; single binding site model. (ITC needs no label: the signal is the heat of the interaction.)

Where two headings read alike, the source gives them in different places. Certain results were filed several times, with different values. The list is limited to them. There may be further records. For some of these results: The values listed for one entry read as repeated measurements on other runs, samples or individuals; a mean can stand among them. Some values that stand alone complete this part of the results.

Chain of UniProt O94888 (O94888 94-284): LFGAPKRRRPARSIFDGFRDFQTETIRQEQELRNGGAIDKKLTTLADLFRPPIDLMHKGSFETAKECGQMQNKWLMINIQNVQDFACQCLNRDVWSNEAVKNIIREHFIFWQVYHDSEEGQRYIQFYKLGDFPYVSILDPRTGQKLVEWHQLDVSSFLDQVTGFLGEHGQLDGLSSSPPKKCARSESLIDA

The term Kd denotes the equilibrium constant for the complex coming apart. As a reminder, the stoichiometry N is the number of molecules, sites or subunits per partner or assembly. Consider “RNF111 RING domain (RNF111-RING, aa 895 to Cter) (domain or fragment)”, for which the Kd is 769 nM, 901 nM, 869 nM [lines of one column] and the stoichiometry N was 1.08, 1.19, 1.05 [lines of one column]. Also, under “mean of three assays”, the Kd was 846 nM and the stoichiometry N was determined as 1.1.

The values are drawn from PMC10080908.
